# In all, about 33,000 sequences were measured (“E-score (-0.5 to 0.5)”: median about -0.04, highest 2% from about 0.36 on). Some of the results follow.
# Target: T1, Hmlalpha2 (UniProt P0CY09)
# T1 sequence: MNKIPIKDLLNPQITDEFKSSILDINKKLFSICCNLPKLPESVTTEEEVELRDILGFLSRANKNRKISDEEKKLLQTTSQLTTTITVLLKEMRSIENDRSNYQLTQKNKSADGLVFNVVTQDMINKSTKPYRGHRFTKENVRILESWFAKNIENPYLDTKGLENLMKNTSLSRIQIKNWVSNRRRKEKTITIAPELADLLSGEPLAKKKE
# Experiment: PBM E-score (8-mer binding enrichment) (E-score (-0.5 to 0.5)); higher = stronger / more preferred TF binding; most listed sequences are background and not binding sites
# Settings: protein concentration: 200 nM; construct: GST-full length
# Procedure, shortened: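 For each ungapped eight-base word taken together with its reverse complement, the Universal PBM Analysis Suite assigned an E-score. Binding data came from GST-tagged yeast transcription factors, applied at about 100-200 nM, on universal all-10-mer Agilent arrays made double-stranded by primer extension. Fluorescent anti-GST marked bound protein, and scans were normalised with masliner.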
row,Sequence,PBM E-score
1,ATCTGTTA,0.23
2,AGATCCTC,-0.235
3,CAATTTTC,-0.114
4,CTATCGTA,0.162
5,ACCATGAG,-0.24
6,CAATGAAC,-0.00588
7,ACACCACG,0.0675
8,AGAGCTGC,-0.16
9,GATAATCC,-0.0865
10,AGTATAGC,-0.0549
11,CCTGCACG,0.134
12,AAGGTAGC,-0.0625
13,ATGCTACA,0.173
14,CTATTGAC,-0.0398
15,CGTAAGAA,0.106
16,ATAAGCCA,0.0197
17,CGCCCACA,-0.0652
18,ACAGGTGG,-0.0993
19,AGCGTTCG,-0.167
20,ATAGGGCG,-0.23
21,TAAAGGAA,0.132
22,CGTAGACC,-0.105
23,AGTGCGTC,-0.188
24,CGCGTACA,0.336
25,GACCATAA,-0.116

row,Sequence,PBM E-score
1,AACCACGC,0.0619
2,ACAGTTAC,0.225
3,CTATGGTA,-0.144
4,CGGTCGGA,-0.0802
5,ACAATATC,0.12
6,GATTGTCC,-0.116
7,GCTCACGA,-0.244
8,CCGCCGGA,-0.265
9,AACCAAGC,-0.163
10,ATGCGTGA,0.0998
11,ATGCTGTC,0.0562
12,AGGAGCAG,-0.405
13,CATTACTC,0.169
14,GTAATGAA,0.239
15,AAACCATT,0.0007
16,CTCGCCAA,-0.188
17,CCGCATAG,-0.129
18,GCTTAAAC,0.00326
19,ATTCCGTA,-0.0358
20,ATCACCGG,-0.202
21,ATTTGGTG,-0.00391
22,ACCATGTA,0.467
23,CCTGAGTC,-0.296
24,GAGAACGC,0.0772
25,ATGTGCCC,-0.161

row,Sequence,PBM E-score
1,CTAAGGAA,-0.0922
2,GTGAGGCA,-0.132
3,CCCCCTCC,-0.183
4,ACACATGG,0.21
5,AAACTCGA,-0.0667
6,CTGCTCGA,-0.251
7,TAGCCCCA,-0.169
8,ACCATATG,-0.0429
9,AGGTCCAG,0.0616
10,CGCGTGCC,-0.0116
11,CAGAAGAC,-0.0688
12,CTTTGCTA,0.0447
13,CGCCGTAA,-0.0307
14,GCGTTTAC,0.203
15,AAGTCCCT,-0.199
16,TCCCCTCA,-0.0445
17,GGAGAAGA,-0.299
18,AGGCAGGG,-0.241
19,AGGAGAGG,-0.277
20,CAGCGAGC,0.12
21,ATAGGAAT,-0.0828
22,GAAGCCCC,-0.238
23,GAAATACC,-0.0406
24,CAGCATGG,0.0718
25,CTTCATGA,-0.0603

row,Sequence,PBM E-score
1,ATATGACC,-0.0326
2,GAACGCTC,-0.299
3,AGCCCGCC,-0.307
4,AGCAATCA,-0.102
5,ACGCACCC,0.117
6,CTACGTTC,0.0712
7,ATCAGAAT,0.00161
8,CTCTGTAC,-0.00455
9,GTCTCCAA,0.0994
10,CCGACGTA,0.0748
11,CCTCCTAC,-0.116
12,GTACTAAA,0.216
13,CACACCCA,0.0204
14,ACACTAAC,0.144
15,ACTAGTGC,-0.0536
16,ATTTTTGG,-0.217
17,CGATAGAC,0.0431
18,ATCGCCCC,-0.203
19,CTTACTAC,0.165
20,CAGGACTG,-0.209
21,GGAGGGAC,-0.198
22,CCCCGGAC,-0.131
23,CACCCGGA,-0.0881
24,CCACTCAG,-0.171
25,CTTACAGC,0.0599

row,Sequence,PBM E-score
1,CAACGGAG,-0.12
2,AGTAAACA,0.337
3,AGGCCTCA,-0.254
4,CAAGAAGC,0.101
5,GTCGTCTA,0.0409
6,TCCCTCGA,-0.23
7,CGAACGCG,0.106
8,GCAACTAA,0.096
9,CGTTTCGC,-0.0298
10,AGGGGACT,-0.159
11,GTGCGCAA,-0.0816
12,GAGTTAGC,0.0731
13,ACCTTTGG,-0.356
14,CGTCGTGA,-0.161
15,ACTAACGA,0.205
16,CCTTCATA,0.0271
17,GCCCCGCC,-0.105
18,ATATCCAA,0.0283
19,CCTAAACA,0.138
20,CCGAGCGC,-0.131
21,TAGTCTAA,-0.0138
22,AATTGTTC,0.201
23,TTCTCCAA,-0.122
24,CGCTAACG,0.119
25,GCAAGGCC,-0.216

row,Sequence,PBM E-score
1,AATCGATC,-0.0618
2,GCAAGTAC,0.262
3,AAGACAAG,0.202
4,GAAAGGGC,-0.0149
5,CGTGGGTA,-0.0765
6,CTTGTCAC,0.0592
7,CTGAGTCC,-0.185
8,AGCATGAC,-0.00117
9,AGATGTGG,-0.0661
10,CACACTGA,-0.00782
11,ATATAGGG,-0.211
12,GTCGCCCA,-0.125
13,GTGATGTA,0.382
14,GGGAGACC,-0.315
15,AACCCGCC,-0.103
16,CTCACGCC,-0.223
17,GTACAGAA,0.0238
18,GGTTAAAA,0.28
19,CTACTACC,-0.0161
20,TGCCTTAA,-0.172
21,ACACGTAA,0.396
22,AACCTAGG,-0.0475
23,AAACGACG,0.177
24,GCCGGGAA,-0.328
25,CAGCATCC,-0.176

row,Sequence,PBM E-score
1,GATCCTGA,-0.176
2,CCGAGGGC,-0.249
3,TACCCCCA,-0.254
4,CGTGCTGA,0.105
5,AGCCTTAC,-0.197
6,CAAGATCC,-0.0141
7,TCATAGCA,-0.0434
8,GAGAACTA,0.109
9,CACCCAAG,-0.212
10,CGGGGCAG,-0.22
11,CCGACGAG,-0.0517
12,CTGGAGGA,-0.281
13,CTTGAATC,-0.0387
14,CACGGCCA,-0.024
15,CCTATGCC,-0.225
16,TGCGGTAA,0.188
17,GCCAACAA,-0.0172
18,GGAGGGGA,-0.289
19,CCAGCAAG,-0.109
20,ACCGGTCC,-0.424
21,AAGTCGTG,0.0647
22,AGCAGACC,-0.0636
